The campaign covered roughly 52,000 compounds. About 4,300 (8.3%) were called active. No stated cut-off is given here; in the data, active means survival mostly below about 52% (no sharp cut-off); inactive means mostly above about 56%. Some of the results follow.
Tested on: DeltatarO mutant
Test: S. aureus survival, RN4220 and DeltatarO strains – OD600, teichoic acid synthesis inhibitors, primary screen (AID 463173)
Settings: S. aureus RN4220 wild type/DeltatarO growth, OD600, 18 h, active compounds read low, screened at 18.75 µg/mL (by protocol)

Structure (SMILES) | survival
CCc1ccc(-n2c(=O)c3c4c(sc3n(Cc3ccccc3C#N)c2=O)CCC4)cc1 | inactive: 146%
O=C1CC(NCC2CCCCC2)C(=O)N1c1ccccc1 (stereo unspecified) | inactive: 92%
COc1ccc(S(=O)(=O)NCCc2nnc3ccc(SCC(=O)Nc4ccccc4C)nn23)cc1 | inactive: 121%
COC(=O)c1c(C)oc2ccc(N(C(=O)c3ccncc3)S(=O)(=O)c3ccc(OC)cc3)cc12 | inactive: 50%
COc1cccc(OC)c1C(=O)N1CCNCC1 | inactive: 92%
O=C(Nc1cccc(C(F)(F)F)c1)c1ccc2c(c1)nnn2C1CCCC1 | inactive: 82%
Cc1ccccc1NC(=O)CN1CCCC1 | inactive: 70%
Cc1cccc(N2CCN(S(=O)(=O)c3c(C)nc4scc(C)n4c3=O)CC2)c1C | inactive: 130%
COc1ccccc1NC(=O)c1ccc(COc2ccc(C)c(C)c2)o1 | active: 1%
CCCCn1c(=O)c2oc3ccccc3c2n(CC(=O)Nc2ccc(CC)cc2)c1=O | inactive: 67%
Cn1cc(CN(C(=O)Nc2ccccc2)C2CCCCC2)c2ccccc21 | active: -14%
COc1ccc(-c2nc3sc(CCNC(=O)c4ccco4)c(C)n3n2)cc1 | inactive: 99%
CCS(=O)(=O)Nc1ccc(-c2cn3ccsc3n2)cc1 | active: 17%
Cn1c(Cn2cnc3ccccc32)nnc1SCC(=O)CC(=O)Nc1ccccc1 | inactive: 63%
CN(C)c1ccc(CNS(=O)(=O)c2ccc(-c3cc(C(F)(F)F)on3)s2)cc1 | inactive: 60%
COc1cc2c(cc1OC)CN(C(=O)Nc1ccccc1)CC2 | inactive: 63%
Cc1c(C(=O)NCc2cccc(Br)c2)oc2ccc3c(c12)C(=O)CC(C)(C)O3 | inactive: 61%
CCN(CC)CCCNC(=O)c1ccc(Cn2c(SCc3ccccc3)nc3cccnc32)cc1 | inactive: 57%
Cn1c(=O)n(Cc2c(F)cccc2Cl)c(=O)c2c1nc1n2CCN1c1ccc(F)cc1 | inactive: 103%
Nc1nn(-c2ccccc2)nc1C(=O)OCc1ccc(Cl)cc1 | active: 44%
COc1ccc(-c2nc3sc(CCNC(=O)C(=O)Nc4cccc(NC(C)=O)c4)c(C)n3n2)cc1 | inactive: 82%
COc1c(C)cccc1C(=O)Nc1ccc(-c2nc3ccccc3s2)c(Cl)c1 | inactive: 68%
COc1ccc(C2=C(N3CCN(c4cccc(C)c4C)CC3)c3ccccc3C2=O)cc1 | inactive: 87%

Structure (SMILES) | survival
Cc1ccc(NC(=O)CC2Oc3ccccc3NC2=O)cc1C (stereo unspecified) | inactive: 96%
Cc1c(C(=O)NCc2cccc(Cl)c2)sc2nc3n(c(=O)c12)CCCC3 | inactive: 56%
COc1ccc(CCNC(=O)CN2C(=O)COc3ccc(S(=O)(=O)N4CCCC4)cc32)c(OC)c1 | inactive: 84%
COc1ccc(-c2cnnn2-c2ccc(NC(=O)c3ccccc3OC)cc2)cc1 | inactive: 107%
N#Cc1ccc(-c2ccc(F)cc2)n(CC(=O)N2CCC(C(N)=O)CC2)c1=O | inactive: 108%
O=C(Nc1ccccc1Cl)N1CCC(CN2CCCC2)CC1 | inactive: 61%
N#CC(C#N)=Cc1cn(CC(=O)N2CCOCC2)c2ccccc12 | inactive: 100%
CC1=C(c2ccc(F)cc2)S(=O)(=O)N=C1N1CCC(C(=O)NCCc2cccc(C)c2)CC1 | inactive: 85%
COc1cccc(-c2nc(CS(=O)(=O)CC(=O)NCc3cccc(Cl)c3)c(C)o2)c1 | inactive: 72%
Cc1ccc(CSc2ncc(Cl)c(C(=O)Nc3nnc(C)s3)n2)cc1 | active: 32%
CC1=C(C(=O)NCc2ccccc2F)C2(CCCCC2)OC1=O | inactive: 71%
COCCNC(=O)c1nn(-c2ccc(C)cc2)c(=O)c2c1c1ccccc1n2C | inactive: 87%
Cc1ccc(CCNC(=O)C2CCCN(c3nnc(C)c4c(C)n(-c5ccccc5)nc34)C2)cc1 (stereo unspecified) | inactive: 80%
CCOC(=O)c1c(C)n(-c2ccccc2)c2ccc(OC(=O)COc3ccc(Cl)cc3)cc12 | inactive: 59%
Cc1ccccc1-c1nc(CN2CCC(C(=O)NCc3ccc(F)cc3)CC2)c(C)o1 | inactive: 109%
CC(=O)c1ccc(NC(=O)c2ccc3c(c2)N(Cc2cccc(Cl)c2)C(=O)c2ccccc2S3=O)cc1 (stereo unspecified) | inactive: 67%
Cc1c(C(=O)NCc2ccccc2Cl)sc2ncnc(N(C)C3CCCCC3)c12 | inactive: 83%
Cc1ccn2c(Nc3ccc4c(c3)OCCO4)c(-c3ccc(C)o3)nc2c1 | active: 58%
Cc1cc(Nc2ccccc2C)n2nc(Cc3ccc(Cl)cc3)nc2n1 | inactive: 64%
COc1ccc(NC(=O)c2cc3c(s2)-c2c(C)cccc2OC3)cc1Cl | inactive: 80%
CC(Sc1nnc2c(n1)[nH]c1ccccc12)C(=O)NC1CC1 (stereo unspecified) | inactive: 60%
COc1ccccc1CNc1ccccc1F | inactive: 70%
COc1ccc(Cn2ccnc2SCC(=O)Nc2nc3ccccc3s2)cc1 | inactive: 84%

Structure (SMILES) | survival
COc1cc2ncc3c(-c4ccc(C)cc4)nn(-c4ccc(F)cc4F)c3c2cc1OC | inactive: 86%
CN(C)CCCNc1cc(N2CCN(C3CCCCC3)CC2)c2noc3c2c1C(=O)c1ccccc1-3 | inactive: 51%
Cc1ccc(NC(=O)CN2C(=O)c3cccnc3Oc3ccc(Cl)cc32)cc1 | inactive: 90%
Cc1ccc(S(=O)(=O)c2nnn3c2nc(NCc2ccc4c(c2)OCO4)c2sccc23)cc1C | inactive: 54%
CCc1ccc(NC(=O)CN2C(=O)c3cccc4cccc2c34)cc1 | inactive: 78%
CC1CCc2c(sc(N)c2C(N)=O)C1 (stereo unspecified) | inactive: 75%
Cc1ccc(C)c(N2CCN(S(=O)(=O)c3cc(C(=O)Nc4ccc(Oc5ccccc5)cc4)ccc3F)CC2)c1 | inactive: 117%
COc1ccc(Br)cc1CNC(=O)c1cnc2sc(N3CCC(C)CC3)nn2c1=O | inactive: 78%
COc1cc(Cl)c(NC(=O)c2cc3ccccn3n2)c(OC)c1 | inactive: 84%
Cc1cccc(NC(=O)C2CCCN2S(=O)(=O)c2ccc3nc(-c4ccccc4)[nH]c3c2)c1 (stereo unspecified) | active: 37%
Cc1nc2ccccn2c(=O)c1NC(=O)c1ccc(F)c(F)c1 | inactive: 99%
COc1ccc(C2(CC(=O)O)CCOC(C)(C)C2)cc1 (stereo unspecified) | inactive: 97%
Cc1ccc2c(c1)c1c(c(=O)n(-c3ccccc3)c(=O)n1CC(=O)NCC1CCCO1)n2C (stereo unspecified) | inactive: 90%
CCOc1cc(C(=O)Nc2ccc(-c3cn4cccnc4n3)cc2)cc(OCC)c1OCC | inactive: 60%
CCNC(=O)C1CCN(S(=O)(=O)c2ccc3c(c2)CCCN3C(C)=O)CC1 | inactive: 99%
CCCN(CCC)c1ccc(C2N=C(N)Nc3nc4ccccc4n32)cc1 (stereo unspecified) | inactive: 59%
Cn1c(=O)oc2cc(S(=O)(=O)CCC(=O)N3CCN(c4cccc(Cl)c4)CC3)ccc21 | inactive: 81%
O=C(NCc1ccccc1)c1ccc(NC(=O)N2CC3CCCN3c3ccccc32)cc1 (stereo unspecified) | inactive: 63%
Cc1ccc(S(=O)(=O)NC(Cc2ccccc2)C(=O)NN)cc1 (stereo unspecified) | inactive: 99%
O=C(Nc1ccc(N2CCCCC2)cc1)c1ccc2c(c1)OCO2 | inactive: 85%
CCCOC(=O)c1cccc(NC(=O)CSc2nnc3cc(C)c4ccccc4n23)c1 | inactive: 100%
CC(=O)c1ccc(NC(=O)c2nc(-c3ccccc3)n(-c3ccc(C)cc3)n2)cc1 | inactive: 60%
O=C(NCc1cccc(Cl)c1)C1CCCN(c2nn3cc(-c4ccc(F)cc4)nc3s2)C1 (stereo unspecified) | inactive: 87%

Structure (SMILES) | survival
Clc1ccc2nc(-c3ccc(N4CCOCC4)cc3)c(Nc3ccccc3)n2c1 | inactive: 67%
COc1ccccc1NC(=O)Cn1c(=O)oc2cc(S(=O)(=O)NCc3ccccc3)ccc21 | inactive: 74%
Cc1ccc(CNS(=O)(=O)c2c(C)nc3sc(C)cn3c2=O)cc1 | inactive: 115%
Cc1ccc(Cl)cc1NC(=O)CN1C(=O)c2ccccc2Sc2ncccc21 | inactive: 95%
CCc1ccc(-c2nc(CS(=O)CC(=O)NCc3ccc(F)cc3)c(C)o2)cc1 (stereo unspecified) | inactive: 100%
COCCNC(=S)N1CCC(c2nc(-c3ccc(N(C)C)cc3)no2)CC1 | inactive: 88%
COc1ccc(CCNC(=O)c2ccc3c(c2)nc2n3CCCCC2)cc1OC | inactive: 75%
Cc1cccc(N2CCN(Cc3nnc(-c4cccc(Br)c4)o3)CC2)c1C | inactive: 72%
CCOC(=O)c1cc(C)n(CC2CCC(C(=O)Nc3cccc(C(C)=O)c3)CC2)c1C (stereo unspecified) | inactive: 92%
CCOc1ccccc1CNCc1c(C(=O)O)n(Cc2ccccc2)c2cc(OC)ccc12 | inactive: 79%
CCOc1ccccc1C1C(C(=O)Nc2ccccc2)=C(C)Nc2nc(-c3ccccc3)nn21 (stereo unspecified) | inactive: 75%
CCCCn1c(SCC(=O)c2ccccc2)nc2sc3c(c2c1=O)CCCC3 | active: 44%
CC(C)NC(=O)CSc1cn(CC(=O)N2CCCCCC2)c2ccccc12 | inactive: 83%
Cc1ccc(-c2nnc3c4ccccc4c(-c4ccccc4)nn23)cc1 | inactive: 134%
CCOc1ccccc1NCc1nnc2n1CCCCC2 | inactive: 95%
Cc1ccc(NCc2cc3cc4c(cc3n(CC(=O)Nc3ccc(C)cc3)c2=O)OCCO4)cc1 | active: 32%
COc1ccc(N2CCN(C(=O)c3cnc(N4CCOCC4)c4ccccc34)CC2)cc1 | inactive: 90%
CCc1ccccc1N(C)C(=O)c1nn(-c2ccc(OC)cc2)c(=O)c2c1c1ccccc1n2C | inactive: 82%
Cc1cccc(NC(=O)c2ccc3oc(=O)c(S(=O)(=O)c4ccc(F)cc4)cc3c2)c1C | inactive: 122%
CCOc1ccc(CNc2cc(C)nc3nc(-c4cccc(C)c4)nn23)cc1OC | inactive: 95%
CCOC(=O)c1cnc2ccc(OCC)cc2c1NCCN(C)C | inactive: 95%
CCOc1ccc(S(=O)(=O)c2cc3cccc(OCC)c3oc2=O)cc1 | inactive: 100%
